# From publication PMC9911399, “Two distinct binding modes provide the RNA-binding protein RbFox with extraordinary sequence specificity”
# Where a chain is given by its changes, count along the chain named. This is one part of the list.
# T1: RBFOX1 RRM (Homo sapiens, UniProt Q9NWB1 109-208)
# T1 sequence: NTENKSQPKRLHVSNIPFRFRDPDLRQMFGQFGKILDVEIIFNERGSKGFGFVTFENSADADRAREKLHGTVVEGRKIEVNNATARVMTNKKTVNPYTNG
# B1: UUCCUAC (DNA:RNA)
# RNA: GGGAGACCGGAAUUCAGAUUGUCCUUCCUACUUAAAUCCCGUCGUAGCCACCA
# DNA 1: CAATCTGAATTCCGGTCTCCC
# DNA 2: TGGTGGCTACGACGGGATT
# B2: CCUCGCA (DNA:RNA)
# RNA: B1 RNA with U25C, U26C, C27U, U29G, A30C, C31A
# DNA 1: CAATCTGAATTCCGGTCTCCC
# DNA 2: TGGTGGCTACGACGGGATT
# B3: GUAGCGG (DNA:RNA)
# RNA: B1 RNA with U25G, C27A, C28G, U29C, A30G, C31G
# DNA 1: CAATCTGAATTCCGGTCTCCC
# DNA 2: TGGTGGCTACGACGGGATT
# B4: AGCAUGU (DNA:RNA)
# RNA: B1 RNA with U25A, U26G, C28A, A30G, C31U
# DNA 1: CAATCTGAATTCCGGTCTCCC
# DNA 2: TGGTGGCTACGACGGGATT
# B5: UUCAAAA (DNA:RNA)
# RNA: B1 RNA with C28A, U29A, C31A
# DNA 1: CAATCTGAATTCCGGTCTCCC
# DNA 2: TGGTGGCTACGACGGGATT
# B6: CGAUAUA (DNA:RNA)
# RNA: GGGAGACCGGAAUUCAGAUUGUCCCGAUAUAUUAAAUCCCGUCGUAGCCACCA
# DNA 1: CAATCTGAATTCCGGTCTCCC
# DNA 2: TGGTGGCTACGACGGGATT
# B7: UUGUUUU (DNA:RNA)
# RNA: B1 RNA with C27G, C28U, A30U, C31U
# DNA 1: CAATCTGAATTCCGGTCTCCC
# DNA 2: TGGTGGCTACGACGGGATT
# B8: ACCUGGA (DNA:RNA)
# RNA: B6 RNA with C25A, G26C, A27C, A29G, U30G
# DNA 1: CAATCTGAATTCCGGTCTCCC
# DNA 2: TGGTGGCTACGACGGGATT
# B9: UGCCGGC (DNA:RNA)
# RNA: B1 RNA with U26G, U29G, A30G
# DNA 1: CAATCTGAATTCCGGTCTCCC
# DNA 2: TGGTGGCTACGACGGGATT
# B10: ACACGUG (DNA:RNA)
# RNA: B6 RNA with C25A, G26C, U28C, A29G, A31G
# DNA 1: CAATCTGAATTCCGGTCTCCC
# DNA 2: TGGTGGCTACGACGGGATT
# B11: UAGAAAG (DNA:RNA)
# RNA: B1 RNA with U26A, C27G, C28A, U29A, C31G
# DNA 1: CAATCTGAATTCCGGTCTCCC
# DNA 2: TGGTGGCTACGACGGGATT
# B12: CGGGAGU (DNA:RNA)
# RNA: B6 RNA with A27G, U28G, U30G, A31U
# DNA 1: CAATCTGAATTCCGGTCTCCC
# DNA 2: TGGTGGCTACGACGGGATT
# B13: UCGACUG (DNA:RNA)
# RNA: B6 RNA with C25U, G26C, A27G, U28A, A29C, A31G
# DNA 1: CAATCTGAATTCCGGTCTCCC
# DNA 2: TGGTGGCTACGACGGGATT
# B14: CUUCAUG (DNA:RNA)
# RNA: B6 RNA with G26U, A27U, U28C, A31G
# DNA 1: CAATCTGAATTCCGGTCTCCC
# DNA 2: TGGTGGCTACGACGGGATT
# B15: AUCGGCC (DNA:RNA)
# RNA: B1 RNA with U25A, C28G, U29G, A30C
# DNA 1: CAATCTGAATTCCGGTCTCCC
# DNA 2: TGGTGGCTACGACGGGATT
# B16: GUGACCC (DNA:RNA)
# RNA: B1 RNA with U25G, C27G, C28A, U29C, A30C
# DNA 1: CAATCTGAATTCCGGTCTCCC
# DNA 2: TGGTGGCTACGACGGGATT
# B17: CAGCCCU (DNA:RNA)
# RNA: B6 RNA with G26A, A27G, U28C, A29C, U30C, A31U
# DNA 1: CAATCTGAATTCCGGTCTCCC
# DNA 2: TGGTGGCTACGACGGGATT
# B18: UGAGUAA (DNA:RNA)
# RNA: B6 RNA with C25U, U28G, A29U, U30A
# DNA 1: CAATCTGAATTCCGGTCTCCC
# DNA 2: TGGTGGCTACGACGGGATT
# B19: GGAGUCC (DNA:RNA)
# RNA: B6 RNA with C25G, U28G, A29U, U30C, A31C
# DNA 1: CAATCTGAATTCCGGTCTCCC
# DNA 2: TGGTGGCTACGACGGGATT
# B20: CGACCCU (DNA:RNA)
# RNA: B6 RNA with U28C, A29C, U30C, A31U
# DNA 1: CAATCTGAATTCCGGTCTCCC
# DNA 2: TGGTGGCTACGACGGGATT
# B21: GAAAUGU (DNA:RNA)
# RNA: B6 RNA with C25G, G26A, U28A, A29U, U30G, A31U
# DNA 1: CAATCTGAATTCCGGTCTCCC
# DNA 2: TGGTGGCTACGACGGGATT
# B22: UGGCAAG (DNA:RNA)
# RNA: B1 RNA with U26G, C27G, U29A, C31G
# DNA 1: CAATCTGAATTCCGGTCTCCC
# DNA 2: TGGTGGCTACGACGGGATT
# B23: AGGGUUC (DNA:RNA)
# RNA: B6 RNA with C25A, A27G, U28G, A29U, A31C
# DNA 1: CAATCTGAATTCCGGTCTCCC
# DNA 2: TGGTGGCTACGACGGGATT
# B24: CCGCAGC (DNA:RNA)
# RNA: B6 RNA with G26C, A27G, U28C, U30G, A31C
# DNA 1: CAATCTGAATTCCGGTCTCCC
# DNA 2: TGGTGGCTACGACGGGATT
# B25: AAUAUGG (DNA:RNA)
# RNA: B1 RNA with U25A, U26A, C27U, C28A, A30G, C31G
# DNA 1: CAATCTGAATTCCGGTCTCCC
# DNA 2: TGGTGGCTACGACGGGATT
# B26: GAGCGAA (DNA:RNA)
# RNA: B1 RNA with U25G, U26A, C27G, U29G, C31A
# DNA 1: CAATCTGAATTCCGGTCTCCC
# DNA 2: TGGTGGCTACGACGGGATT
# B27: GAUUUCA (DNA:RNA)
# RNA: B6 RNA with C25G, G26A, A27U, A29U, U30C
# DNA 1: CAATCTGAATTCCGGTCTCCC
# DNA 2: TGGTGGCTACGACGGGATT
# B28: GCACCUA (DNA:RNA)
# RNA: B6 RNA with C25G, G26C, U28C, A29C
# DNA 1: CAATCTGAATTCCGGTCTCCC
# DNA 2: TGGTGGCTACGACGGGATT
# B29: AUCUAAG (DNA:RNA)
# RNA: B1 RNA with U25A, C28U, U29A, C31G
# DNA 1: CAATCTGAATTCCGGTCTCCC
# DNA 2: TGGTGGCTACGACGGGATT
# B30: ACGUACC (DNA:RNA)
# RNA: B6 RNA with C25A, G26C, A27G, U30C, A31C
# DNA 1: CAATCTGAATTCCGGTCTCCC
# DNA 2: TGGTGGCTACGACGGGATT
# B31: GCCGAGA (DNA:RNA)
# RNA: B6 RNA with C25G, G26C, A27C, U28G, U30G
# DNA 1: CAATCTGAATTCCGGTCTCCC
# DNA 2: TGGTGGCTACGACGGGATT
# Target: T1, RBFOX1 RRM
# Assay: EMSA; HiTS-Eq, 1 nM pool, 10 min; buffer printed only for the single-RNA assays: 10 mM Tris pH 7.5, 150 mM NaCl, 3.4 mM EDTA, 0.001% NP-40, 30 C
# Conditions: tags: His6 N-terminal (pET28a); label: 5' 32P
# Method in brief: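 These values rest on relative association constants, computed from read-count changes of each RNA species versus the control reaction and normalised to the cognate motif. Reads came from free RNA recovered by 8% native PAGE after purified RbFox RRM (wild type or mutant) at increasing concentrations was equilibrated for 10 min in 50 µL with 1 nM of a 5′-radiolabelled pool with 7 randomized nucleotides and DNA-annealed flanks.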
row,Binder,binding signal
1,B1,0.00566 KA relative to UGCAUGU
2,B2,0.0153 KA relative to UGCAUGU
3,B3,0.0122 KA relative to UGCAUGU
4,B4,0.738 KA relative to UGCAUGU
5,B5,0.003 KA relative to UGCAUGU
6,B6,0.000551 KA relative to UGCAUGU
7,B7,0.0227 KA relative to UGCAUGU
8,B8,0.00688 KA relative to UGCAUGU
9,B9,0.0185 KA relative to UGCAUGU
10,B10,0.00337 KA relative to UGCAUGU
11,B11,0.0158 KA relative to UGCAUGU
12,B12,0.0213 KA relative to UGCAUGU
13,B13,0.0216 KA relative to UGCAUGU
14,B14,0.0106 KA relative to UGCAUGU
15,B15,0.0117 KA relative to UGCAUGU
16,B16,0.00703 KA relative to UGCAUGU

row,Binder,binding signal
1,B17,0.000496 KA relative to UGCAUGU
2,B18,0.0193 KA relative to UGCAUGU
3,B19,0.0187 KA relative to UGCAUGU
4,B20,0.00228 KA relative to UGCAUGU
5,B21,0.0132 KA relative to UGCAUGU
6,B22,0.0199 KA relative to UGCAUGU
7,B23,0.0208 KA relative to UGCAUGU
8,B24,0.00553 KA relative to UGCAUGU
9,B25,0.00711 KA relative to UGCAUGU
10,B26,0.0114 KA relative to UGCAUGU
11,B27,0.0102 KA relative to UGCAUGU
12,B28,0.0076 KA relative to UGCAUGU
13,B29,0.00346 KA relative to UGCAUGU
14,B30,0.00409 KA relative to UGCAUGU
15,B31,0.0191 KA relative to UGCAUGU
